B2: human 4-1BB (receptor)
chain: not shown
notes: Soluble antigen in Octet; construct not described

The target of one test is T1, human HER3 (human, UniProt P21860 part only).
T1 construct: Soluble antigen in Octet; bought; also called human HER3 (Acro ER3-H5223)
Briefly: BLI (Octet), unstapled control mAb or Fc-scFv. On the technique in general: Biolayer interferometry detects binding as a change in optical thickness at a sensor tip.

The target in the next test is T2, SI-49P9.
T2 construct: penta-miniGNC; D1 αCD3, D2 αCD19, D3 NKG2D receptor dimer, D4 41BBL, D5 αPD-L1
The test can be described thus: BLI (Octet); conditions not stated; D4 is the ligand 41BBL.

A further test concerns the target T3, SI-75P4.
T3 construct: penta-miniGNC; D1 αEGFR, D2 αHER3, D3 αCD3 (Fab), D4 41BBL (ligand of the 4-1BB receptor), D5 αPD-L1
Briefly: BLI (Octet), binder on AHC sensor, 100 nM human antigen, 1:1 fit; D4 is the ligand 41BBL.

For test [1], the target named is T4, human CD3 (human, UniProt P07766 23-126; P04234 22-105).
T4 construct: also called His-tagged human CD3; human CD3 (Acro CDD-H52W1)
The test can be described thus: BLI (Octet); conditions not stated.

The test “human 4-1BB” deals with B2. Briefly: BLI (Octet); conditions not stated.
The target of a further test is T5, human PD-L1 (human, UniProt Q9NZQ7 part only).
T5 construct: Soluble antigen in Octet; bought; also called human PD-L1 (Acro PD1-H5229)
Briefly: BLI (Octet); conditions not stated.

For the next test, the target named is T6, CD19 (UniProt P15391 20-291, limits assumed).
T6 sequence (looked up): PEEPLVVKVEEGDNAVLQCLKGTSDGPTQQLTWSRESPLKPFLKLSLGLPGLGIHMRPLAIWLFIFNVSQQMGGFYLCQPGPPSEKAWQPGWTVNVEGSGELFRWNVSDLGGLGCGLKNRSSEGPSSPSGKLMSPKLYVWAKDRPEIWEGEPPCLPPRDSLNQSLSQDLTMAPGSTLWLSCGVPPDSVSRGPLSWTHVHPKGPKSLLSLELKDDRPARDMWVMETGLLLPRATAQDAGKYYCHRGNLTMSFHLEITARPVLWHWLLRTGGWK
Briefly: BLI (Octet); conditions not stated.

Another test deals with NKG2D ligand. The test can be described thus: BLI (Octet); conditions and ligand not stated.
The target of test [2] is T4, human CD3. Briefly: BLI (Octet), binder on AHC sensor; conditions for this molecule not stated.
For a further test, the target named is T7, human EGFR (human, UniProt P00533 part only, limits assumed).
T7 construct: Soluble antigen in Octet; construct not described
The description is as above.

T4 sequence (P07766 23-126, chain 1 of 2): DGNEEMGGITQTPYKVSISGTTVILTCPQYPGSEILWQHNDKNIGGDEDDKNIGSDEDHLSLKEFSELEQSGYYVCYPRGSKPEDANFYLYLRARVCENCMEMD
T4 sequence (P04234 22-105, chain 2 of 2, further chain): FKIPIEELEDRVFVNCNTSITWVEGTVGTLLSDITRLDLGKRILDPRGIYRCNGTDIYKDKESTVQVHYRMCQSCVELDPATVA
Sequence of human 4-1BB (Q07011 24-186 limits assumed): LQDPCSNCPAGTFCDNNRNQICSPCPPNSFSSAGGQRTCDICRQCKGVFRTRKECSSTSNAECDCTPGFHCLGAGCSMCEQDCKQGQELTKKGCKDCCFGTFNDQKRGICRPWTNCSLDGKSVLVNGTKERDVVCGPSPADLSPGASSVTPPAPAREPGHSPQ
Sequence of human PD-L1 (Q9NZQ7 19-238 limits assumed): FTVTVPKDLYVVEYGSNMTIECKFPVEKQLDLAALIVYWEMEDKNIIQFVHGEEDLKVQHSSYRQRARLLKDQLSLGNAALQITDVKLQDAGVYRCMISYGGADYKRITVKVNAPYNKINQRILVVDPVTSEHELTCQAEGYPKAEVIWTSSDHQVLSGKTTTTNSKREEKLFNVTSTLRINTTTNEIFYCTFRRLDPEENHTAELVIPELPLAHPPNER
T3 sequence (chain, as listed by the source, chain 1 of 2): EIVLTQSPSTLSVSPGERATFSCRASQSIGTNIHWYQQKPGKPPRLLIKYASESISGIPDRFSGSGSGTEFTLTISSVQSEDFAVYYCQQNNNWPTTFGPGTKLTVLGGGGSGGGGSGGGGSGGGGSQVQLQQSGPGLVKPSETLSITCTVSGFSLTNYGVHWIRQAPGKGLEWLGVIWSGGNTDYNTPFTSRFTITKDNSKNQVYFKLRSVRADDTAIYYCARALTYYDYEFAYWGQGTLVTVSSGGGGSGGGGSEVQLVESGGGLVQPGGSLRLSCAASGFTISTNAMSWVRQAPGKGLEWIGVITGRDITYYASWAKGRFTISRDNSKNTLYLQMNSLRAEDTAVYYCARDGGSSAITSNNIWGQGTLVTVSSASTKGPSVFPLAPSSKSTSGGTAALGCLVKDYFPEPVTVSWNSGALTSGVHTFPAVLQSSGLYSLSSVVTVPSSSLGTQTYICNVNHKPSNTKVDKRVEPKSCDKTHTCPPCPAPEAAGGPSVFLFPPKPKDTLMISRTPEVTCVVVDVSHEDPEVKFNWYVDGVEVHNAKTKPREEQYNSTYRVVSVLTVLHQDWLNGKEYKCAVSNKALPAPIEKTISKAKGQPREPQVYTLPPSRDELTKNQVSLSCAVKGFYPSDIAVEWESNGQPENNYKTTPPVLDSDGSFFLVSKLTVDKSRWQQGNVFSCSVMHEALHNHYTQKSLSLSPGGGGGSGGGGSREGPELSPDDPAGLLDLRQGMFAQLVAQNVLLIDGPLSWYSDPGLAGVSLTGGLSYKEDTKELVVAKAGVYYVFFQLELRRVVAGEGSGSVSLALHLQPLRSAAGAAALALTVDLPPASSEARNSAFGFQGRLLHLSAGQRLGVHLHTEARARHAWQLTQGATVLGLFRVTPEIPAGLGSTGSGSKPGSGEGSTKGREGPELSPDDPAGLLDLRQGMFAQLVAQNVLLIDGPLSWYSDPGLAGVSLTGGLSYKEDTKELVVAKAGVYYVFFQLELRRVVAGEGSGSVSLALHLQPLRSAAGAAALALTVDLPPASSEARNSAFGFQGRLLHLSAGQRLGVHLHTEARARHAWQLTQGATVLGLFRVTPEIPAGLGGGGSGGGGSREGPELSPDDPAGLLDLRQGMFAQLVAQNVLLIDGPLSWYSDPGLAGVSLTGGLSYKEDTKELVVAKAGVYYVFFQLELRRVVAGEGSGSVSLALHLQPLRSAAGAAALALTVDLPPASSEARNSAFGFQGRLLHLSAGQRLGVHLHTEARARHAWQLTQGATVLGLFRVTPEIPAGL
T3 sequence (chain, as listed by the source, chain 2 of 2): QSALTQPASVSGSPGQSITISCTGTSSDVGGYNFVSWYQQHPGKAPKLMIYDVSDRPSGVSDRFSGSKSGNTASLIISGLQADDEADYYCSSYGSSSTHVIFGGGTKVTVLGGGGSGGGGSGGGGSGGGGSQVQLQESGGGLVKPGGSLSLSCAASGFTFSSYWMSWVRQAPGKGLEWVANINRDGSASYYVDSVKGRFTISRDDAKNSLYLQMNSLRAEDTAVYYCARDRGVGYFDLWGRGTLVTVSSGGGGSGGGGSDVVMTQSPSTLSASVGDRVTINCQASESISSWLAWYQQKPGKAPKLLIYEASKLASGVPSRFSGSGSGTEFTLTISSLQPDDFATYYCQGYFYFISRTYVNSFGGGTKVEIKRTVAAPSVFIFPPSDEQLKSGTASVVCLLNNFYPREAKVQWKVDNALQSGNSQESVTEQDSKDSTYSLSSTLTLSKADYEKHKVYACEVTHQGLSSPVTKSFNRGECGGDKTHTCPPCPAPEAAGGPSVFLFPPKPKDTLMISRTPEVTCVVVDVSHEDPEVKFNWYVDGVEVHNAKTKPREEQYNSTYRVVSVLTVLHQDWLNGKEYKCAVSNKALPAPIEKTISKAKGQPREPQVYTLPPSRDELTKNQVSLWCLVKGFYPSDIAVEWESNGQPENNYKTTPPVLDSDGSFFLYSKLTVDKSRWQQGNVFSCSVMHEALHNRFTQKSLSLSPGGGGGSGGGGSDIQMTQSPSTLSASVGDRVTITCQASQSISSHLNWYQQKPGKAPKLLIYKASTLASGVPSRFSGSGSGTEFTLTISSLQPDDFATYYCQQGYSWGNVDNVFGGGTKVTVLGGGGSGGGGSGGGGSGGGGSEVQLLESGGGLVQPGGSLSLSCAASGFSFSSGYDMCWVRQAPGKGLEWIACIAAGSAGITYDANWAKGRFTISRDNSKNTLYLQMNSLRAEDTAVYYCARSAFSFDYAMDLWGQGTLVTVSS

B1: SI-1C7 (Fc fusion)
chain: [human IgG1 Fc with changes cut from this listing]GGGSGGGGSQVQLQESGGGLVKPGGSLRLSCAASGFTFSSYWMSWVRQAPGKGLEWVANINRDGSASYYVDSVKGRFTISRDDAKNSLYLQMNSLRAEDTAVYYCARDRGVGYFDLWGRGTLVTVSSGGGGSGGGGSGGGGSQSALTQPASVSGSPGQSITISCTGTSSDVGGYNFVSWYQQHPGKAPKLMIYDVSDRPSGVSDRFSGSKSGNTASLIISGLQADDEADYYCSSYGSSSTHVIFGGGTKVTVL
notes: Fc-scFv control for the αHER3 domain; also called αHER3 Fc-scFv; D2 = αHER3 unstapled control
One may read the Kd as the concentration at which binding is half-saturated. High values mean lower affinity, low ones higher affinity. Turning to B1, binding with human HER3 was characterised by a dissociation constant (Kd) of 136 nM.

On to B2, for which the dissociation constant (Kd) came to 112 nM with SI-49P9 and 115 nM with SI-75P4.

B3: SI-49P8 (other)
chain 1: EIVMTQSPSTLSASVGDRVIITCQASESISSWLAWYQQKPGKAPKLLIYEASKLASGVPSRFSGSGSGAEFTLTISSLQPDDFATYYCQGYFYFISRTYVNSFGCGTKLTVLGSTGSGSKPGSGEGSTKGEVQLVESGGGLVQPGGSLRLSCTASGFTISTNAMSWVRQAPGKCLEWVGVITGRDITYYASWAKGRFTISRDTSKNTVYLQMNSLRAEDTAVYYCARDGGSSAITSNNIWGQGTLVTVSTGGGGSGGGGSFLNSLFNQEVQIPLTESYCGPCPKNWICYKNNCYQFFDESKNWYESQASCMSQNASLLKVYSKEDQDLLKLVKSYHWMGLVHIPTNGSWQWEDGSILSPNLLTIIEMQKGDCALYASSFKGYIENCSTPNTYICMQRTVASTKGPSVFPLAPSSKSTSGGTAALGCLVKDYFPEPVTVSWNSGALTSGVHTFPAVLQSSGLYSLSSVVTVPSSSLGTQTYICNVNHKPSNTKVDKRVEPKSCDKTHTCPPCPAPEAAGGPSVFLFPPKPKDTLMISRTPEVTCVVVDVSHEDPEVKFNWYVDGVEVHNAKTKPREEQYASTYRVVSVLTVLHQDWLNGKEYKCAVSNKALPAPIEKTISKAKGQPREPQVCTLPPSRDELTKNQVSLSCAVKGFYPSDIAVEWESNGQPENNYKTTPPVLDSDGSFFLVSKLTVDKSRWQQGNVFSCSVMHEALHNHYTQKSLSLSPGGGGGSGGGGSRSLVESGGGLVQPGGSLRLSCTASGFTISSYHMQWVRQAPGKCLEYIGTISSGGNVYYASSARGRFTISRPSSKNTVDLQMNSLRAEDTAVYYCARDSGYSDPMWGQGTLVTVSSGGGGSGGGGSGGGGSGGGGSDVVMTQSPSSVSASVGDRVTITCQASQNIRTYLSWYQQKPGKAPKLLIYAAANLASGVPSRFSGSGSGTDFTLTISDLEPGDAATYYCQSTYLGTDYVGGAFGCGTKVEIK
chain 2: ENVLTQSPASLSASPGERVTITCSASSSVSYMHWYQQKPGQAPKLWIYDTSKLASGVPSRFSGSGSGNDHTLTISSMEPEDFATYYCFQGSVYPFTFGQGTKLEIKGSTGSGSKPGSGEGSTKGQVTLKESGPGLVQPGQTLRLTCAFSGFSLSTSGMGVGWIRQPPGKGLEWLAHIWWDDDKRYNPALKSRLTISKDTSKNQVYLQMNSLDAEDTAVYYCARMELWSYYFDYWGQGTLVTVSTGGGGSGGGGSFLNSLFNQEVQIPLTESYCGPCPKNWICYKNNCYQFFDESKNWYESQASCMSQNASLLKVYSKEDQDLLKLVKSYHWMGLVHIPTNGSWQWEDGSILSPNLLTIIEMQKGDCALYASSFKGYIENCSTPNTYICMQRTVRTVAAPSVFIFPPSDEQLKSGTASVVCLLNNFYPREAKVQWKVDNALQSGNSQESVTEQDSKDSTYSLSSTLTLSKADYEKHKVYACEVTHQGLSSPVTKSFNRGECGG[human IgG1 Fc with L234A L235A N297A K322A S354C T366W (EU numbers) cut from this listing]GGGGSGGGGSEVQLLESGGGLVQPGGSLRLSCAASGFSFSSGYDMCWVRQAPGKCLEWIACIAAGSAGITYDANWAKGRFTISRDNSKNTLYLQMNSLRAEDTAVYYCARSAFSFDYAMDLWGQGTLVTVSSGGGGSGGGGSGGGGSGGGGSDIQMTQSPSTLSASVGDRVTITCQASQSISSHLNWYQQKPGKAPKLLIYKASTLASGVPSRFSGSGSGTEFTLTISSLQPDDFATYYCQQGYSWGNVDNVFGCGTKVEIK
notes: penta-miniGNC; D1 αCD3, D2 αCD19, D3 NKG2D receptor dimer, D4 α4-1BB, D5 αPD-L1
Regarding B3, the Kd with human CD3 [1] came out at 36.3 nM; in the test with human 4-1BB, 7.71 nM; with human PD-L1 it was 1.08 nM; with CD19 it was 2.98 nM; with NKG2D ligand it was 24.3 nM.

B4: SI-68X1 (other)
chain 1: DIQMTQSPSTLSASVGDRVTITCQASENIYSNLAWYQQKPGKAPKLLIYDASTLASGVPSRFSGSGSGTEFTLTISSLQPDDFATYYCQSTYYNNIIYGAAFGCGTKVEIKGGGGSGGGGSGGGGSGGGGSEVQLVESGGGLVQPGGSLRLSCAASGFSFSGTQYVCWVRQAPGKCLEWIGCIYVDVANTYYATSVKGRFTISRDNSKNTLYLQMNSLRAEDTAVYYCASHDTVCAGCGLDLWGQGTLVTVSTGGGGSGGGGSEVQLVESGGGLVQPGGSLRLSCAASGFTISTNAMSWVRQAPGKGLEWIGVITGRDITYYASWAKGRFTISRDNSKNTLYLQMNSLRAEDTAVYYCARDGGSSAITSNNIWGQGTLVTVSSASTKGPSVFPLAPSSKSTSGGTAALGCLVKDYFPEPVTVSWNSGALTSGVHTFPAVLQSSGLYSLSSVVTVPSSSLGTQTYICNVNHKPSNTKVDKRVEPKSCDKTHTCPPCPAPEAAGGPSVFLFPPKPKDTLMISRTPEVTCVVVDVSHEDPEVKFNWYVDGVEVHNAKTKPREEQYASTYRVVSVLTVLHQDWLNGKEYKCAVSNKALPAPIEKTISKAKGQPREPQVCTLPPSRDELTKNQVSLSCAVKGFYPSDIAVEWESNGQPENNYKTTPPVLDSDGSFFLVSKLTVDKSRWQQGNVFSCSVMHEALHNHYTQKSLSLSPGK
chain 2: DIQMTQSPSSLSASVGDRVTITCQASQDISNYLNWYQQKPGKAPKLLIYDASNLETGVPSRFSGSGSGTDFTFTISSLQPEDIATYFCQHFDHLPLAFGCGTKVEIKGGGGSGGGGSGGGGSGGGGSQVQLQESGPGLVKPSETLSLTCTVSGGSVSSGDYYWTWIRQSPGKCLEWIGHIYYSGNTNYNPSLKSRLTISIDTSKTQFSLKLSSVTAADTAIYYCVRDRVTGAFDIWGQGTMVTVSTGGGGSGGGGSDVVMTQSPSTLSASVGDRVTINCQASESISSWLAWYQQKPGKAPKLLIYEASKLASGVPSRFSGSGSGTEFTLTISSLQPDDFATYYCQGYFYFISRTYVNSFGGGTKVEIKRTVAAPSVFIFPPSDEQLKSGTASVVCLLNNFYPREAKVQWKVDNALQSGNSQESVTEQDSKDSTYSLSSTLTLSKADYEKHKVYACEVTHQGLSSPVTKSFNRGECGG[human IgG1 Fc with L234A L235A N297A K322A S354C T366W (EU numbers) cut from this listing]
notes: tri-miniGNC, stapled scFv; D1 αCEA, D2 αEGFR*, D3 αCD3 (Fab)
As to B4, the Kd in the test with human CD3 [2] was 14.3 nM; with human EGFR it was under 0.001 nM.

The values are drawn from patent US20230114801A1 (SYSTIMMUNE, published 2023).
